We go through 89 molecules from PubChem BioAssay AID463173 (ICCB-Longwood Screening Facility, Harvard Medical School, 2010).

Each structure is given as a SMILES string. Among all 52,000 compounds or so, about 1,700 (3.3%) were called active. Rule as the data show it: active = survival mostly below about 52% (no sharp cut-off); inactive = mostly above about 56%. Some of the results follow.

The subject of this experiment is Wild type. Description: S. aureus survival, RN4220 and DeltatarO strains – OD600, teichoic acid synthesis inhibitors, primary screen (AID 463173). The note with it: S. aureus RN4220 wild type/DeltatarO growth, OD600, 18 h, hits give low values, screened at 18.75 µg/mL (by protocol).
In the case of `CCOc1ccc(N2CC(c3nc4ccccc4n3Cc3ccccc3F)CC2=O)cc1` (centres undefined), the survival is inactive: 113%.
On to `COc1ccc(-c2nnc(SCC(=O)NC3CCCC3)nc2-c2ccc(OC)c(OC)c2)cc1OC`, for which the survival was inactive: 60%.
The same measure for `O=C(NCc1ccccc1)C1CCN(S(=O)(=O)c2ccc3c(c2)CCCN3C(=O)C2CCC2)CC1`: inactive: 85%; for `CCOC(=O)c1scc(-c2ccc(C)cc2)c1S(=O)(=O)N1CCN(c2ccccc2F)CC1`: inactive: 120%.
As for `O=C(CCC1N=C2c3ccccc3N=C(SCc3cccc(F)c3)N2C1=O)NCc1cccs1` (centres undefined), the survival is inactive: 84%.
The same measure for `CCOc1ccc(NC(=O)c2ccc(F)c(S(=O)(=O)N(CC)Cc3ccccc3)c2)cc1`: inactive: 77%; for `Cc1cccc(NC(=O)C(=O)NCC(c2cccnc2)N2CCc3ccccc3C2)c1C` (centres undefined): inactive: 85%.
As to `Cc1ccc(NC(=O)NCc2cccn2Cc2ccccc2)c(C)c1`, the survival was inactive: 67%.
As to `CCCCCSc1ncnc2c1sc1nc(N3CCOCC3)c3c(c12)CCCC3`, the survival was inactive: 64%.
The same measure for `COCCNC(=O)c1cc2ccccc2o1`: inactive: 106%.
Regarding `Cc1ccc(Cl)cc1N1CCN(C(=O)CCNS(=O)(=O)c2ccc3c(c2)CCN3C(=O)C2CC2)CC1`, the survival was inactive: 73%.
For `COc1ccc(OC)c(NC(=O)c2cc(S(=O)(=O)NCCc3ccc(Cl)cc3)ccc2F)c1`, the survival was inactive: 79%.
`CCC(C)NC(=O)Cn1c(=O)n(-c2ccc(C)c(C)c2)c(=O)c2c3c(sc21)CCCCC3` (centres undefined): the survival was inactive: 91%.
With `COC(=O)c1ccc(-c2nc3cc(NC(C)=O)ccc3o2)cc1` the figure was inactive: 150%.
The same measure for `Cc1ccc(C(=O)Nc2ccc3oc(-c4cccnc4)nc3c2)cc1`: inactive: 112%.
With `N#Cc1ccc(N2CCOCC2)cc1C#N` the figure was inactive: 105%; with `CCOc1ccc(CCNC(=O)c2sc3ncccc3c2-n2cccc2)cc1OCC`, inactive: 45%.
Consider `CCOc1ccc(OCC)c(NC(=O)c2ccc(-c3ccccc3)s2)c1`, for which the survival is inactive: 23%.
With `CCCCc1nn2c(=O)cc(COC(=O)C3CCCCC3)nc2s1` the figure was inactive: 70%; with `Cc1nc2nc(SCC(=O)NC3CCC(C)CC3)nn2c(C)c1Cc1ccccc1` (centres undefined), inactive: 101%; with `C=C(C)c1cccc(C(C)(C)NC(=O)N2CCCC2)c1`, inactive: 115%.
Consider `COc1ccc(-n2c(=O)c3ccccc3n(Cc3cccc(C)c3)c2=O)cc1`, for which the survival is inactive: 75%.
With `CCCN(c1ccc(C(C)C)cc1)S(=O)(=O)c1ccc2c(c1)oc(=O)n2CC(=O)OCC` the figure was inactive: 73%.
Consider `COc1cccc(Cn2c(CNS(=O)(=O)c3ccc(C(C)(C)C)cc3)nc3cccnc32)c1`, for which the survival was inactive: 134%.
With `COc1ccccc1N1CCN(C(=O)c2cc(S(=O)(=O)N3CCC(C)CC3)cn2C)CC1` the figure was active: 0%; with `COc1ccc(-c2nc(CNC(=O)Nc3ccccc3)c(C)o2)cc1`, inactive: 84%; with `COc1cc2c(-c3cc(Br)ccc3O)nc3c(c(C)nn3-c3ccccc3)c2cc1OC`, inactive: 67%.
Take `O=C(Nc1nnc(S(=O)(=O)Nc2ccccc2)s1)C1CCCCC1`: the survival was inactive: 44%.
As to `CCCSc1nnc2[nH]c(=O)cc(C)n12`, the survival was inactive: 135%.
For the molecule `CCOC(=O)Cn1c(=O)n(CC2CCCO2)c2nc(-c3ccc(C(C)C)cc3)nc(C(N)=O)c21` (centres undefined), the survival is active: 1%.
As to `CCOC(=O)c1ccc(N2C(=O)c3n[nH]c(C)c3C2c2ccc(OCC)cc2)cc1` (centres undefined), the survival is inactive: 76%.
The same measure for `Cc1ccccc1N(C)S(=O)(=O)c1nnc(NC(=O)C(C)C)s1`: inactive: 73%.
The same measure for `COC(=O)C(C#N)C(c1cccnc1)c1c(C)[nH][nH]c1=O` (centres undefined): inactive: 108%; for `N#C/C(=C(\O)c1ccco1)c1nc2ccccc2[nH]1`: inactive: 118%.
Regarding `Cc1ccccc1NC(=O)Cn1c(=O)n(Cc2ccccc2)c(=O)c2sc3ccccc3c21`, the survival was inactive: 68%.
For `CCOc1ccc(C(=O)NCC(c2ccco2)S(=O)(=O)c2cccs2)cc1` (centres undefined), the survival is inactive: 69%.
Consider `Cc1ccccc1-c1nn2c(=O)cc(CN3CCN(S(=O)(=O)c4ccc(Cl)cc4)CC3)nc2s1`, for which the survival was inactive: 119%.
Regarding `Cc1nn(-c2ccc(N3CCCC3)nn2)c(C)c1CCC(=O)N1CCN(c2ccccc2)CC1`, the survival is inactive: 78%.
The same measure for `COc1ccc2c(C)c(CCC(=O)NCc3ccc(Cl)cc3)c(=O)oc2c1C`: inactive: 88%; for `CCN(Cc1ccccc1)C(=O)c1nn(-c2ccc(OC)cc2)c(=O)c2c1c1ccccc1n2C`: inactive: 82%.
In the case of `Cc1[nH]c2ccccc2c1C1(O)C(=O)N(Cc2ccccc2Cl)c2ccccc21` (centres undefined), the survival is inactive: 72%.
Consider `Cc1ccc(C)c(N2C(=O)CS/C2=N\NC(=O)c2ccc(S(=O)(=O)N3CCCC3)cc2)c1`, for which the survival was inactive: 123%.
The same measure for `COc1ccc(NC(=O)Cn2c(=O)n(-c3cccc(C(F)(F)F)c3)c(=O)c3sccc32)cc1`: inactive: 102%.
The same measure for `COC(=O)C(NC(=O)CCc1c(C)nc2c(c(C)nn2-c2ccccc2)c1C)C(C)C` (centres undefined): inactive: 86%; for `Cc1ccccc1NC(=O)[C@H](CSCc1ccccc1)N1Cc2ccccc2C1=O`: inactive: 69%.
With `CCc1ccc(S(=O)(=O)Nc2ccc(-c3ccc(N4CCCC4)nn3)cc2)cc1` the figure was inactive: 72%.
In the case of `CCC1CN(C(=O)Nc2ccc(Br)cc2F)c2ccccc2S1` (centres undefined), the survival is inactive: 97%.
`O=C(NCC(c1ccc(Cl)cc1)N1CCCCC1)c1ccccc1F` (centres undefined): the survival is inactive: 94%.
With `COc1ccccc1N1CCN(C(=O)CSc2n[nH]c(-c3ccccc3Cl)n2)CC1` the figure was inactive: 75%; with `CCOc1ccc(OCC)c(NC(=O)CCc2nc3cccnc3n2-c2ccccc2)c1`, inactive: 86%.
With `COc1cc(OC)cc(C(=O)Nc2ccc3nc(Nc4cccc(C(F)(F)F)c4)cc(C)c3c2)c1` the figure was inactive: 79%; with `c1ccc2c(c1)nc1n2CCC1`, inactive: 111%; with `O=C(NCc1ccc(F)cc1)c1cnc(N2CCCCC2)c2ccccc12`, inactive: 69%.
The same measure for `CCCOc1ccc(CNC(=O)C2CCCN(c3nc4c(C)cc(C)cc4s3)C2)cc1` (centres undefined): inactive: 93%; for `C#CCn1c(C2CC(=O)N(c3ccc(OCC)cc3)C2)nc2ccccc21` (centres undefined): inactive: 89%.
As for `CCN(CC)C(=O)C1CCN(c2nnc(C)c3c(C)n(-c4ccc(Cl)cc4)nc23)CC1`, the survival is inactive: 66%.
With `COc1ccc(NC(=O)Cn2c(=O)n(CCCC(=O)NCCc3ccc(C)cc3)c(=O)c3ccccc32)cc1Cl` the figure was inactive: 93%.
With `Cc1ccc(CCNC(=O)c2ccc3c(c2)N(Cc2ccccc2)C(=O)c2ccccc2S3=O)cc1` (centres undefined), the survival is inactive: 93%.
With `COc1ccc(N2CCN(c3ncnc4onc(-c5ccc(F)cc5)c34)CC2)cc1` the figure was inactive: 93%.
With `Cc1cccc(NC(=O)c2ccc(F)c(S(=O)(=O)N3CCC4(CC3)OCCO4)c2)c1` the figure was inactive: 71%; with `CC(C)NC(=O)C1CC(=O)N(c2ccc(Oc3ccccc3)cc2)C1` (centres undefined), inactive: 101%.
With `CC(C)Cn1c(=O)c2ccccc2n2c(CCC(=O)N3CCN(c4ccccc4)CC3)nnc12` the figure was inactive: 127%; with `COc1ccc(C(=O)Nc2nnc(C)s2)cc1`, inactive: 72%.
Consider `CC(C)c1ccc(C2c3c(-c4ccccc4O)n[nH]c3C(=O)N2Cc2ccncc2)cc1` (centres undefined), for which the survival is inactive: 106%.
With `CCCCOC(=O)CSc1nnc(-c2ccc(C)cc2)o1`, the survival was active: 8%.
With `COc1cc(OC)c(NC(=O)N2CCc3cc(OC)c(OC)cc3C2CC(=O)O)cc1Cl` (centres undefined) the figure was inactive: 82%.
In the case of `CCc1ccc(C2CC(=O)c3c([nH]c(C(=O)OCCOc4ccccc4)c3C)C2)cc1` (centres undefined), the survival is inactive: 83%.
For the molecule `Cc1ccc2onc(CNC(=O)Nc3cc(F)ccc3F)c2c1`, the survival is inactive: 86%.
With `Cc1ccc2c(c1)Cc1c(nc(-c3ccc(Cl)cc3)nc1SCC(=O)N1CCCCC1)O2` the figure was inactive: 123%; with `Cc1ccn2c(Nc3ccc4c(c3)OCCO4)c(-c3cccs3)nc2c1`, inactive: 66%; with `Cc1ccc(Cl)cc1NC(c1ccc(F)cc1)c1nnc(-c2ccccc2)o1` (centres undefined), inactive: 117%.
Take `Cc1ccc(NC(=O)C(CC(C)C)NS(=O)(=O)c2ccc3c(c2)oc(=O)n3C)c(C)c1` (centres undefined): the survival is inactive: 80%.
Regarding `CC(=O)N1CCc2c(sc3c2c(=O)n(CCc2ccccc2)c(=O)n3CC(=O)Nc2ccc(C)c(F)c2)C1`, the survival was inactive: 90%.
For the molecule `COc1cccc2c1Oc1ncccc1N(c1ccc(C(=O)NCc3ccccc3Cl)s1)C2`, the survival was inactive: 119%.
The same measure for `O=C(CSc1nnc(-c2ccc(Cl)cc2)o1)Nc1ccc(F)cc1`: inactive: 83%.
The same measure for `CCc1ccccc1NC(=O)Cn1c(=O)n(Cc2ccc3c(c2)OCO3)c(=O)c2ccc(C(=O)NC3CCCCC3)cc21`: inactive: 129%; for `Cc1ccccc1-c1nc(CS(=O)(=O)CC(=O)NCC(C)c2ccccc2)c(C)o1` (centres undefined): inactive: 81%.
Turning to `CCc1ccc(OCC(=O)Nc2cc3oc4ccccc4c3cc2OC)cc1`, the survival is inactive: 76%.
With `COc1cc(OC)c(NC(=O)C2CCCN(c3ncnc4c3nc3n4CCCCC3)C2)cc1Cl` (centres undefined) the figure was inactive: 127%.
For `O=C(COc1ccccc1Cl)NCC1(N2CCOCC2)CCCCC1`, the survival was inactive: 104%.
The same measure for `COc1cccc(C(=O)NC2CCSC2=O)c1` (centres undefined): inactive: 107%.
With `CCCc1nn2c(=O)cc(COC(=O)c3cccc(NC(=O)COc4ccccc4C)c3)nc2s1` the figure was inactive: 82%; with `O=C(c1cc(-c2ccccc2)on1)N1CCCc2ccccc21`, inactive: 114%.
With `Cc1cccc(OCCn2c(-c3ccc(Cl)cc3)nc3ccccc3c2=O)c1` the figure was inactive: 112%.
For the molecule `CCN1CCN(CCCNC(=O)c2cc3c(=O)n(C)c4ccccc4c3s2)CC1`, the survival was inactive: 86%.
With `O=C(NCCc1ccccc1)c1cnc2sc(N3CCCC3)nn2c1=O` the figure was inactive: 80%.
For the molecule `CC(=O)c1c(C)nc2nc(-c3ccccc3)nn2c1C`, the survival is inactive: 65%.
With `COC(=O)C1=C(CS(=O)(=O)c2cc(Cl)ccc2OC)NC(=O)NC1c1ccccc1` (centres undefined) the figure was inactive: 85%; with `CCCCOc1ccc(C(=O)N2CCN(CCc3ccncc3)CC2)cc1`, inactive: 110%.
